# Test results from the supplement of paper PMC12217912.
# The list shows a part of the results. The full chains were built here from the parent and the listed change. Values near 0.05 are background.
# B1: TEV protease; numbered along this chain (parent)
# chain: MGESLFKGPRDYNPISSSICHLTNESDGHTTSLYGIGFGPFIITNKHLFRRNNGTLVVQSLHGVFKVKDTTTLQQHLVDGRDMIIIRMPKDFPPFPQKLKFREPQREERICLVTTNFQTKSMSSMVSDTSCTFPSGDGIFWKHWIQTKDGQCGSPLVSTRDGFIVGIHSASNFTNTNNYFTSVPKNFMELLTNQEAQQWVSGWRLNADSVLWGGHKVFMVKPEEPFQPVKEATQL
# Variants of: B1
# Assay: raw area under fraction-flipped curve 0-4 h after induction (AUC4h, not background-subtracted), DNA-recorder readout of cleavage of the substrate (dimensionless); higher = more cleavage of the substrate by the protease variant
# Settings: temperature: 34 °C; time window: 0-4 h after rhamnose induction
# Protocol: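 In vivo DNA recorder in E. coli TOP10(DE3) ΔrhaA at 34 °C. Each TEVp single-site mutant (parent TEVp 0) is paired with a single-site variant of the 7-mer TEVs (canonical ENLYFQ|S). The substrate sits between flexible linkers in a Bxb1-sfGFP-TEVs-SsrA fusion, so cleavage stabilises Bxb1 and speeds flipping of a recombination array, read by NGS. The value is the raw area under the fraction-flipped curve over 0-4 h after rhamnose induction (AUC4h), with ≥20 reads per time point. It is not background-subtracted; inactive controls average about 0.047.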
# 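Also: Bxb1 expression induced with 0.2% (w/v) L-rhamnose at OD600 near 0.5, cultures sampled hourly, flipped fraction per protease–substrate barcode pair counted by paired-end Illumina sequencing.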
Variant,area with substrate ENLCFQS,area with substrate ENLDFQS,area with substrate ENLFFQS,area with substrate ENLHFQS,area with substrate ENLKFQS,area with substrate ENLLFQS,area with substrate ENLNFQS,area with substrate ENLPFQS,area with substrate ENLRFQS,area with substrate ENLSFQS,area with substrate ENLVFQS,area with substrate ENLEFQS,area with substrate ENLWFQS,area with substrate ENLIFQS,area with substrate ENLQFQS,area with substrate ENLGFQS,area with substrate ENLMFQS,area with substrate ENLTFQS
MGESLFKGPRDYNPISSSICHLTNESDGHTTSLYGIGFGPFIITNKHLFRRNNGTLVVQSLHGVFKVKDTTTLQQHLVDGRDMIIIRMPKDQPPFPQKLKFREPQREERICLVTTNFQTKSMSSMVSDTSCTFPSGDGIFWKHWIQTKDGQCGSPLVSTRDGFIVGIHSASNFTNTNNYFTSVPKNFMELLTNQEAQQWVSGWRLNADSVLWGGHKVFMVKPEEPFQPVKEATQL [F92Q],0.0706,0.0608,0.0862,0.0621,0.0903,0.0773,0.0407,0.0663,0.065,0.0457,0.0792,,,,,,,
MGESLFKGPRDYNPISSSICHLTNESDGHTTSLYGIGFGPFIITNKHLFRRNNGTLVVQSLHGVFKVKDTTTLQQHLVDGRDMIIIRMPKDFPPFPQKLKFREPVREERICLVTTNFQTKSMSSMVSDTSCTFPSGDGIFWKHWIQTKDGQCGSPLVSTRDGFIVGIHSASNFTNTNNYFTSVPKNFMELLTNQEAQQWVSGWRLNADSVLWGGHKVFMVKPEEPFQPVKEATQL [Q105V],0.0633,0.0382,0.0772,0.0732,0.0908,0.0749,0.0522,0.0474,0.0807,,0.0667,0.0596,0.0721,,,,,
MGESLFKGPRDYNPISSSICHLTNESDGHTTSLYGIGFGPFIITNKHLFRRNNGTLVVQSLHGVFKVKDTTTLQQHLVDGRDMIIIRMPKDFPPFPQKLKFREPQREERICLVTTNFQTKSMSSMVSDTSCTFPSGDGIFDKHWIQTKDGQCGSPLVSTRDGFIVGIHSASNFTNTNNYFTSVPKNFMELLTNQEAQQWVSGWRLNADSVLWGGHKVFMVKPEEPFQPVKEATQL [W141D],0.0572,0.0396,0.0613,0.0616,0.0655,0.064,0.0554,,0.0577,,0.0617,0.0572,0.0564,0.0431,,,,
MGESLFKGPRDYNPISSSICHLTNESDGHTTSLYGIGFGPFIITNKHLFRRNNGTLVVQSLHGVFKVKDTTTLQQHLVDGRDMIIIRMPKDFPPFPQKLKMREPQREERICLVTTNFQTKSMSSMVSDTSCTFPSGDGIFWKHWIQTKDGQCGSPLVSTRDGFIVGIHSASNFTNTNNYFTSVPKNFMELLTNQEAQQWVSGWRLNADSVLWGGHKVFMVKPEEPFQPVKEATQL [F101M],0.0566,0.0615,0.0613,0.101,0.0726,0.0664,0.0644,0.0647,,,,0.0739,,0.0837,0.0598,,,
MGESLFKGPRDYNPISSSICHLTNESDGHTTSLYGIGFGPFIITNKHLFRRNNGTLVVQSLHGVFKVKDTTTLQQHLVDGRDMIIIRMPKDFPPFPQKLKFREPQREERICLVTTNFQTKSMSSMVRDTSCTFPSGDGIFWKHWIQTKDGQCGSPLVSTRDGFIVGIHSASNFTNTNNYFTSVPKNFMELLTNQEAQQWVSGWRLNADSVLWGGHKVFMVKPEEPFQPVKEATQL [S127R],0.073,0.0621,0.0794,0.0613,0.0981,,0.0592,,0.0799,,,,,,,0.0667,,
MGESLFKGPRDYNPISSSICHLTNESDGHTTSLYGIGFGPFIITNKHLFRRNNGTLVVQSLHGVFKVKDTTTLQQHLVDGRDMIIIRMPKDFPPFPQKLKFRNPQREERICLVTTNFQTKSMSSMVSDTSCTFPSGDGIFWKHWIQTKDGQCGSPLVSTRDGFIVGIHSASNFTNTNNYFTSVPKNFMELLTNQEAQQWVSGWRLNADSVLWGGHKVFMVKPEEPFQPVKEATQL [E103N],0.0593,0.0428,0.0833,0.0587,,,0.0985,0.0741,,0.062,0.0623,,,,,,,
MGESLFKGPRDYNPISSSICHLTNESDGHTTSLYGIGFGPFIITNKHLFRRNNGTLVVQSLHGVFKVKDTTTLQQHLVDGRDMIIIRMPKDFPPFPQKLKFREPQREERICLVTTNFQTKSMSSMVSDTSCTSPSGDGIFWKHWIQTKDGQCGSPLVSTRDGFIVGIHSASNFTNTNNYFTSVPKNFMELLTNQEAQQWVSGWRLNADSVLWGGHKVFMVKPEEPFQPVKEATQL [F133S],0.0671,0.0679,0.0819,,0.0839,,0.0703,0.0517,,0.0593,0.0816,,0.0725,0.0734,,,0.0758,
MGESLFKGPRDYNPISSSICHLTNESDGHTTSLYGIGFGPFIITNKHLFRRNNGTLVVQSLHGVFKVKDTTTLQQHLVDGRDMIIIRMPKDFPPFPQKLKFREPQREERICLVTTNFQTKSMSSMVSDTSATFPSGDGIFWKHWIQTKDGQCGSPLVSTRDGFIVGIHSASNFTNTNNYFTSVPKNFMELLTNQEAQQWVSGWRLNADSVLWGGHKVFMVKPEEPFQPVKEATQL [C131A],0.0619,0.0509,,0.0884,0.111,,,,,,,0.0704,,,,,,
MGESLFKGPRDYNPISSSICHLTNESDGHTTSLYGIGFGPFIITNKHLFRRNNGTLVVQSLHGVFKVKDTTTLQQHLVDGRDMIIIRMPKDFPPFPQKLKFREPQREERICLVTTNFQTKSMSSMVSDTSGTFPSGDGIFWKHWIQTKDGQCGSPLVSTRDGFIVGIHSASNFTNTNNYFTSVPKNFMELLTNQEAQQWVSGWRLNADSVLWGGHKVFMVKPEEPFQPVKEATQL [C131G],0.0905,0.062,0.0778,,,0.0596,,,,0.0722,,0.0518,0.0716,0.0705,0.0705,,,
MGESLFKGPRDYNPISSSICHLTNESDGHTTSLYGIGFGPFIITNKHLFRRNNGTLVVQSLHGVFKVKDTTTLQQHLVDGRDMIIIRMPKDFEPFPQKLKFREPQREERICLVTTNFQTKSMSSMVSDTSCTFPSGDGIFWKHWIQTKDGQCGSPLVSTRDGFIVGIHSASNFTNTNNYFTSVPKNFMELLTNQEAQQWVSGWRLNADSVLWGGHKVFMVKPEEPFQPVKEATQL [P93E],0.0868,0.0685,,0.0809,0.105,0.0805,,0.063,0.0849,0.0599,0.133,0.0573,0.0578,,0.0828,,,
MGESLFKGPRDYNPISSSICHLTNESDGHTTSLYGIGFGPFIITNKHLFRRNNGTLVVQSLHGVFKVKDTTTLQQHLVDGRDMIIIRMPKDFPPFPQKLKFREPQREERICLVTTNFQTKSMSSMVSDTSCTFPSGDGIFWKVWIQTKDGQCGSPLVSTRDGFIVGIHSASNFTNTNNYFTSVPKNFMELLTNQEAQQWVSGWRLNADSVLWGGHKVFMVKPEEPFQPVKEATQL [H143V],0.059,0.0542,0.0733,0.0604,0.0597,0.0639,0.0652,0.0594,0.075,0.0615,0.0659,0.0637,0.0646,0.17,0.0617,0.0701,,
MGESLFKGPRDYNPISSSICHLTNESDGHTTSLYGIGFGPFIITNKHLFRRNNGTLVVQSLHGVFKVKDTTTLQQHLVDGRDMIIIRMPKDFPPFPQKLKFREPQREERICLVTTNFQTKSMSSMVSDTSCTFPSGDGIFWKQWIQTKDGQCGSPLVSTRDGFIVGIHSASNFTNTNNYFTSVPKNFMELLTNQEAQQWVSGWRLNADSVLWGGHKVFMVKPEEPFQPVKEATQL [H143Q],0.067,0.0651,0.0604,,0.06,,0.0632,0.0791,0.056,0.0784,,0.0714,,0.0623,0.0481,,0.0751,
MGESLFKGPRDYNPISSSICHLTNESDGHTTSLYGIGFGPFIITNKHLFRRNNGTLVVQSLHGVFKVKDTTTLQQHLVDGRDMIIIRMPKDFPPFPQKAKFREPQREERICLVTTNFQTKSMSSMVSDTSCTFPSGDGIFWKHWIQTKDGQCGSPLVSTRDGFIVGIHSASNFTNTNNYFTSVPKNFMELLTNQEAQQWVSGWRLNADSVLWGGHKVFMVKPEEPFQPVKEATQL [L99A],0.0678,,0.0832,,,,0.0569,,0.0651,0.0681,0.077,0.0573,,,0.0505,0.0581,,0.0621
MGESLFKGPRDYNPISSSICHLTNESDGHTTSLYGIGFGPFIITNKHLFRRNNGTLVVQSLHGVFKVKDTTTLQQHLVDGRDMIIIRMPKDFPPFPQKLKFREPQREERICLVTINFQTKSMSSMVSDTSCTFPSGDGIFWKHWIQTKDGQCGSPLVSTRDGFIVGIHSASNFTNTNNYFTSVPKNFMELLTNQEAQQWVSGWRLNADSVLWGGHKVFMVKPEEPFQPVKEATQL [T115I],0.072,0.0522,0.08,,0.0664,,0.0651,0.0459,,0.0719,,,,,,,,
MGESLFKGPRDYNPISSSICHLTNESDGHTTSLYGIGFGPFIITNKHLFRRNNGTLVVQSLHGVFKVKDTTTLQQHLVDGRDMIIIRMPKDFPPFPQKLKFREPQCEERICLVTTNFQTKSMSSMVSDTSCTFPSGDGIFWKHWIQTKDGQCGSPLVSTRDGFIVGIHSASNFTNTNNYFTSVPKNFMELLTNQEAQQWVSGWRLNADSVLWGGHKVFMVKPEEPFQPVKEATQL [R106C],0.0532,0.0479,0.11,0.0733,0.065,,0.0656,0.0703,0.0793,0.0628,,0.0697,0.072,,0.0736,,0.065,
MGESLFKGPRDYNPISSSICHLTNESDGHTTSLYGIGFGPFIITNKHLFRRNNGTLVVQSLHGVFKVKDTTTLQQHLVDGRDMIIIRMPKDFPPFPQKLKFREPQREERIQLVTTNFQTKSMSSMVSDTSCTFPSGDGIFWKHWIQTKDGQCGSPLVSTRDGFIVGIHSASNFTNTNNYFTSVPKNFMELLTNQEAQQWVSGWRLNADSVLWGGHKVFMVKPEEPFQPVKEATQL [C111Q],0.0592,,0.0844,0.0707,0.085,,0.0368,0.0771,0.0519,,,,,,0.0242,,,
MGESLFKGPRDYNPISSSICHLTNESDGHTTSLYGIGFGPFIITNKHLFRRNNGTLVVQSLHGVFKVKDTTTLQQHLVDGRDMIIIRMPKDFPPFPQKLKFREPQREWRICLVTTNFQTKSMSSMVSDTSCTFPSGDGIFWKHWIQTKDGQCGSPLVSTRDGFIVGIHSASNFTNTNNYFTSVPKNFMELLTNQEAQQWVSGWRLNADSVLWGGHKVFMVKPEEPFQPVKEATQL [E108W],0.0535,0.0629,0.0638,0.0469,0.0579,0.054,0.0683,0.0535,0.0572,0.0561,,0.0757,,,0.0644,,0.0577,
MGESLFKGPRDYNPISSSICHLTNESDGHTTSLYGIGFGPFIITNKHLFRRNNGTLVVQSLHGVFKVKDTTTLQQHLVDGRDMIIIRMPKDFPPFPQKLKFREPQREERICLVTTGFQTKSMSSMVSDTSCTFPSGDGIFWKHWIQTKDGQCGSPLVSTRDGFIVGIHSASNFTNTNNYFTSVPKNFMELLTNQEAQQWVSGWRLNADSVLWGGHKVFMVKPEEPFQPVKEATQL [N116G],0.0634,,,,0.182,0.0726,0.0619,0.0609,0.0669,0.0653,,,0.0656,0.096,0.051,,,
MGESLFKGPRDYNPISSSICHLTNESDGHTTSLYGIGFGPFIITNKHLFRRNNGTLVVQSLHGVFKVKDTTTLQQHLVDGRDMIIIRMPKDFPPFPQKLKFREPQREESICLVTTNFQTKSMSSMVSDTSCTFPSGDGIFWKHWIQTKDGQCGSPLVSTRDGFIVGIHSASNFTNTNNYFTSVPKNFMELLTNQEAQQWVSGWRLNADSVLWGGHKVFMVKPEEPFQPVKEATQL [R109S],0.0597,,0.0795,0.0625,,0.0866,0.06,0.0727,0.0856,0.0504,0.0799,,0.0547,,,,,
